Laboratory results taken from patent US4228292A, “N-Substituted benzothiazolines and benzoxazolines and their use as herbicides and plant growth regulants” (Monsanto Company, priority 1978, dated 1980).
Where “and” joins values, the source holds several entries; their conditions need not be identical. Identical values can stand only once. The name of at least one read-out is uncertain. Some compounds share one range, which may span the group rather than tell each member.

Columns and labels:
Type in all cases: in vivo
Canada Thistle [1] = test: pre-emergent herbicidal test; settings: A, 5.6 kg/h
Cocklebur [2] = test: pre-emergent herbicidal test; settings: B
Velvetleaf [3] = test: pre-emergent herbicidal test; settings: C
Morning Glory [4] = test: pre-emergent herbicidal test; settings: D
Lambsquarters [5] = test: pre-emergent herbicidal test; settings: E
Smartweed [6] = test: pre-emergent herbicidal test; settings: F
Nutsedge [7] = test: pre-emergent herbicidal test; settings: G, 5.6 kg/h
Quackgrass [8] = test: pre-emergent herbicidal test; settings: H, 5.6 kg/h
Johnson Grass [9] = test: pre-emergent herbicidal test; settings: I, 5.6 kg/h
Downy Brome [10] = test: pre-emergent herbicidal test; settings: J
Barnyard Grass [11] = test: pre-emergent herbicidal test; settings: K
Canada Thistle [12] = test: post-emergent herbicidal test; settings: A, 5.6 kg/h
Cocklebur [13] = test: post-emergent herbicidal test; settings: B, 5.6 kg/h
Velvetleaf [14] = test: post-emergent herbicidal test; settings: C, 5.6 kg/h
Morning Glory [15] = test: post-emergent herbicidal test; settings: D, 5.6 kg/h
Lambsquarters [16] = test: post-emergent herbicidal test; settings: E, 5.6 kg/h
Smartweed [17] = test: post-emergent herbicidal test; settings: F, 5.6 kg/h
Nutsedge [18] = test: post-emergent herbicidal test; settings: G, 5.6 kg/h
Quackgrass [19] = test: post-emergent herbicidal test; settings: H, 5.6 kg/h
Johnson Grass [20] = test: post-emergent herbicidal test; settings: I, 5.6 kg/h
Downy Brome [21] = test: post-emergent herbicidal test; settings: J, 5.6 kg/h
Barnyard Grass [22] = test: post-emergent herbicidal test; settings: K, 5.6 kg/h

CCOc1ccc2c(c1)sc(=O)n2CC(=N)OC [Compound 28]
pre-emergent herbicidal rating (Canada Thistle [1]; 2 WAT): 0 (0-24)
pre-emergent herbicidal rating (Cocklebur [2]; 5.6 kg/h, 2 WAT): 0 (0-24)
pre-emergent herbicidal rating (Velvetleaf [3]; 5.6 kg/h, 2 WAT): 0 (0-24)
pre-emergent herbicidal rating (Morning Glory [4]; 5.6 kg/h, 2 WAT): 0 (0-24)
pre-emergent herbicidal rating (Lambsquarters [5]; 5.6 kg/h, 2 WAT): 0 (0-24)
pre-emergent herbicidal rating (Smartweed [6]; 5.6 kg/h, 2 WAT): 0 (0-24)
pre-emergent herbicidal rating (Nutsedge [7]; 2 WAT): 0 (0-24)
pre-emergent herbicidal rating (Quackgrass [8]; 2 WAT): 0 (0-24)
pre-emergent herbicidal rating (Johnson Grass [9]; 2 WAT): 0 (0-24)
pre-emergent herbicidal rating (Downy Brome [10]; 5.6 kg/h, 2 WAT): 0 (0-24)
pre-emergent herbicidal rating (Barnyard Grass [11]; 5.6 kg/h, 2 WAT): 0 (0-24)
post-emergent herbicidal rating (Canada Thistle [12]; 2 WAT): 0 (0-24)
post-emergent herbicidal rating (Cocklebur [13]; 2 WAT): 1 (25-49)
post-emergent herbicidal rating (Velvetleaf [14]; 2 WAT): 0 (0-24)
post-emergent herbicidal rating (Morning Glory [15]; 2 WAT): 0 (0-24)
post-emergent herbicidal rating (Lambsquarters [16]; 2 WAT): 0 (0-24)
post-emergent herbicidal rating (Smartweed [17]; 2 WAT): 0 (0-24)
post-emergent herbicidal rating (Nutsedge [18]; 2 WAT): 0 (0-24)
post-emergent herbicidal rating (Quackgrass [19]; 2 WAT): 0 (0-24)
post-emergent herbicidal rating (Johnson Grass [20]; 2 WAT): 0 (0-24)
post-emergent herbicidal rating (Downy Brome [21]; 2 WAT): 0 (0-24)
post-emergent herbicidal rating (Barnyard Grass [22]; 2 WAT): 0 (0-24)

CC(C)OC(=N)Cn1c(=O)sc2ccccc21 [Compound 29]
pre-emergent herbicidal rating (Canada Thistle [1]; 4 WAT): 3 (75-100)
pre-emergent herbicidal rating (Cocklebur [2]; 5.6 kg/h, 4 WAT): 2 (50-74)
pre-emergent herbicidal rating (Velvetleaf [3]; 5.6 kg/h, 4 WAT): 2 (50-74)
pre-emergent herbicidal rating (Morning Glory [4]; 5.6 kg/h, 4 WAT): 2 (50-74)
pre-emergent herbicidal rating (Lambsquarters [5]; 5.6 kg/h, 4 WAT): 3 (75-100)
pre-emergent herbicidal rating (Smartweed [6]; 5.6 kg/h, 4 WAT): 2 (50-74)
pre-emergent herbicidal rating (Nutsedge [7]; 4 WAT): 0 (0-24)
pre-emergent herbicidal rating (Quackgrass [8]; 4 WAT): 1 (25-49)
pre-emergent herbicidal rating (Johnson Grass [9]; 4 WAT): 0 (0-24)
pre-emergent herbicidal rating (Downy Brome [10]; 5.6 kg/h, 4 WAT): 0 (0-24)
pre-emergent herbicidal rating (Barnyard Grass [11]; 5.6 kg/h, 4 WAT): 1 (25-49)
post-emergent herbicidal rating (Canada Thistle [12]; 4 WAT): 2 (50-74)
post-emergent herbicidal rating (Cocklebur [13]; 4 WAT): 2 (50-74)
post-emergent herbicidal rating (Velvetleaf [14]; 4 WAT): 2 (50-74)
post-emergent herbicidal rating (Morning Glory [15]; 4 WAT): 2 (50-74)
post-emergent herbicidal rating (Lambsquarters [16]; 4 WAT): 4 (100)
post-emergent herbicidal rating (Smartweed [17]; 4 WAT): 2 (50-74)
post-emergent herbicidal rating (Nutsedge [18]; 4 WAT): 0 (0-24)
post-emergent herbicidal rating (Quackgrass [19]; 4 WAT): 0 (0-24)
post-emergent herbicidal rating (Johnson Grass [20]; 4 WAT): 0 (0-24)
post-emergent herbicidal rating (Downy Brome [21]; 4 WAT): 0 (0-24)
post-emergent herbicidal rating (Barnyard Grass [22]; 4 WAT): 0 (0-24)

CCCOC(=N)Cn1c(=O)sc2ccccc21 [Compound 30]
pre-emergent herbicidal rating (Canada Thistle [1]; 4 WAT): 3 (75-100)
pre-emergent herbicidal rating (Cocklebur [2]; 0.28 kg/h, 2 WAT): 1 (25-49)
pre-emergent herbicidal rating (Cocklebur [2]; 1.12 kg/h, 4 WAT): 1 (25-49)
pre-emergent herbicidal rating (Cocklebur [2]; 5.6 kg/h, 4 WAT): 3 (75-100) and 2 (50-74)
pre-emergent herbicidal rating (Velvetleaf [3]; 0.28 kg/h, 2 WAT): 0 (0-24)
pre-emergent herbicidal rating (Velvetleaf [3]; 1.12 kg/h, 4 WAT): 1 (25-49)
pre-emergent herbicidal rating (Velvetleaf [3]; 5.6 kg/h, 4 WAT): 2 (50-74)
pre-emergent herbicidal rating (Morning Glory [4]; 0.28 kg/h, 2 WAT): 0 (0-24)
pre-emergent herbicidal rating (Morning Glory [4]; 1.12 kg/h, 4 WAT): 1 (25-49)
pre-emergent herbicidal rating (Morning Glory [4]; 5.6 kg/h, 4 WAT): 1 (25-49) and 2 (50-74)
pre-emergent herbicidal rating (Lambsquarters [5]; 0.28 kg/h, 2 WAT): 0 (0-24)
pre-emergent herbicidal rating (Lambsquarters [5]; 1.12 kg/h, 4 WAT): 2 (50-74)
pre-emergent herbicidal rating (Lambsquarters [5]; 5.6 kg/h, 4 WAT): 3 (75-100)
pre-emergent herbicidal rating (Smartweed [6]; 0.28 kg/h, 2 WAT): 0 (0-24)
pre-emergent herbicidal rating (Smartweed [6]; 1.12 kg/h, 4 WAT): 1 (25-49)
pre-emergent herbicidal rating (Smartweed [6]; 5.6 kg/h, 4 WAT): 2 (50-74) and 3 (75-100)
pre-emergent herbicidal rating (Nutsedge [7]; 4 WAT): 0 (0-24)
pre-emergent herbicidal rating (Quackgrass [8]; 4 WAT): 0 (0-24)
pre-emergent herbicidal rating (Johnson Grass [9]; 4 WAT): 0 (0-24)
pre-emergent herbicidal rating (Downy Brome [10]; 0.28 kg/h, 2 WAT): 0 (0-24)
pre-emergent herbicidal rating (Downy Brome [10]; 1.12 kg/h, 4 WAT): 0 (0-24)
pre-emergent herbicidal rating (Downy Brome [10]; 5.6 kg/h, 4 WAT): 0 (0-24)
pre-emergent herbicidal rating (Barnyard Grass [11]; 0.28 kg/h, 2 WAT): 0 (0-24)
pre-emergent herbicidal rating (Barnyard Grass [11]; 1.12 kg/h, 4 WAT): 0 (0-24)
pre-emergent herbicidal rating (Barnyard Grass [11]; 5.6 kg/h, 4 WAT): 0 (0-24)
post-emergent herbicidal rating (Canada Thistle [12]; 4 WAT): 3 (75-99)
post-emergent herbicidal rating (Cocklebur [13]; 4 WAT): 2 (50-74)
post-emergent herbicidal rating (Velvetleaf [14]; 4 WAT): 2 (50-74)
post-emergent herbicidal rating (Morning Glory [15]; 4 WAT): 2 (50-74)
post-emergent herbicidal rating (Lambsquarters [16]; 4 WAT): 4 (100)
post-emergent herbicidal rating (Smartweed [17]; 4 WAT): 3 (75-99)
post-emergent herbicidal rating (Nutsedge [18]; 4 WAT): 0 (0-24)
post-emergent herbicidal rating (Quackgrass [19]; 4 WAT): 0 (0-24)
post-emergent herbicidal rating (Johnson Grass [20]; 4 WAT): 0 (0-24)
post-emergent herbicidal rating (Downy Brome [21]; 4 WAT): 0 (0-24)
post-emergent herbicidal rating (Barnyard Grass [22]; 4 WAT): 0 (0-24)
